For part of its entries the source gives two or more results. Only these are listed. The source may hold further records. The values listed for one entry repeat one measurement across runs, samples, wells, individuals or studies. Counts like (3×) stand for listed records that agree. Marks such as [2022-09] give the month of the run.
Tested on: 994946-033-R-J1-PDC complex spheroid viability
Assay: Anticancer human tumor 994946-033-R-J1-PDC patient-derived melanoma cell line growth inhibition [POLQ]
Settings: stronger effect = lower value
Protocol: Multicellular complex tumor spheroid response to Polymerase (POL) inhibitors (novobiocin, ART-558, RP6685) in combination with a variety of drugs and investigational agents in selected tumor cell lines
The POL inhibitors (novobiocin, ART-558, and RP6685) were evaluated both individually and in combination with standard of care and investigational anticancer small molecules within a complex spheroid model of solid tumors. . Complex spheroids include a stromal component modeled by human endothelial cells (HUVEC) and fibroblasts modeled by human mesenchymal stem cells (MSCs). The concentration ranges selected for each drug and investigational agent were based upon clinically achievable concentrations if the clinical Cmax of the agent was known.
Compounds. The drugs and investigational agents: novobiocin (NSC847541), ART-558 (NSC835418), RP-6685 (NSC848927), peposertib (NSC802822), ceralasertib (NSC780249), elimusertib (NSC800525), camonsertib (NSC841442), AZD-1390 (NSC803789), olaparib (NSC753686), talazoparib (NSC767125), rucaparib (NSC756644), sotorasib (NSC818433), MRTX-1133 (NSC836407), SN-38 (NSC673596), topotecan (NSC609699), epotoside (NSC141540), doxorubicin (NSC123127), gemcitabine (NSC613327), 5-fluorouracil (NSC19893), paclitaxel (NSC125973), vemurafenib (NSC761431), MSA-2 (NSC828583), SN-011 (NSC837082), adavosertib (NSC754352), prexasertib (NSC758257), carboplatin (NSC241240) and oxaliplatin (NSC266046), were obtained from the National Cancer Institute (NCI) Developmental Therapeutics Program Chemical Repository (21). The FDA-approved anticancer drug set is available from the Developmental Therapeutics Program at https://dtp.cancer.gov/organization/dscb/obtaining/. […] The stock solutions were prepared in dimethyl sulfoxide (DMSO, Sigma-Aldrich, St. Louis, MO, cat. D2650), except for the platinum compounds which were prepared in saline (Quality Biological, Gaithersburg, MD, cat. 114-055-101), at 800-fold the tested concentration and stored at -70 degrees C prior to their use. All drugs and investigational agents were tested over a range starting from a high concentration at or near the clinical Cmax and decreasing in half-log increments. If the clinical Cmax for an agent had not been determined, the highest concentration tested was 10 microM, except for SN-38, which was tested at a high concentration of 1 microM.
Cell Culture. All cells were maintained in an incubator at 37 degrees C and 5% CO2 with 95% humidity. The PDC lines were cultured according to standard operating procedures established by the NCI PDMR (https://pdmr.cancer.gov). Table 3 of the manuscript, lists the cell lines along with the number of the three cell types plated to form the mct-spheroids and media for tumor cell growth. After thawing, all PDC lines, except 997537-175-T-J1-PDC and 415267-285-R-J2-PDC, were cultured in Matrigel-coated flasks prepared with a working solution of 1X Ham's F-12 nutrient mix, without supplementation (Thermo Fisher Scientific, cat. 11765054), 100 U/mL penicillin-streptomycin (Thermo Fisher Scientific, cat. 15140122), and 2.5% Matrigel (Corning Inc., Corning, NY, cat. 354248) for the first three passages. The two PDC lines 997537-175-T-J1-PDC and 415267-285-R-J2-PDC were cultured on uncoated flasks. The 857933-349-R-J2-PDC line was cultured in 6C/Colon 1B media containing advanced DMEM/F-12 (Thermo Fisher Scientific, cat. 12634028), 10 mM HEPES (Thermo Fisher Scientific, cat. 15630080), 1X GlutaMAX supplement (Thermo Fisher Scientific, cat. 35050061), 0.1 mg/mL primocin (InvivoGen, San Diego, CA, cat. ant-pm-2), 10% defined fetal bovine serum, heat inactivated (HyClone Laboratories Inc., Logan, UT, cat. SH30070.03HI), 50% L-WRN conditioned media (ATCC, cat. CRL-3276), 1.25 mM N-Acetyl-L-cysteine (Sigma-Aldrich, cat. A9165), 10 mM nicotinamide (Sigma-Aldrich, cat. N0636), 1X B-27 supplement (Thermo Fisher Scientific, cat. 17504044), 1X N-2 supplement (Thermo Fisher Scientific, cat. […]
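Also: spheroids exposed to drugs for 7 days; 100% = DMSO vehicle treated spheroids.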

SMILES	viability, T/C (compound alone 0.0316 µM)	viability, T/C (compound alone 0.1 µM)	viability, T/C (compound alone 0.316 µM)	viability, T/C (compound alone 1 µM)	viability, T/C (compound alone 3.16 µM)	viability, T/C (compound alone 10 µM)
Nc1ccc(C#CCN(C(=O)Cc2ncc(C(F)(F)F)cc2C(F)(F)F)c2ccc(F)cc2)nn1	75.5, 80.5, 99.4, 80.7, 105, 110, 101, 95.1, 79.8, 80.8, 112, 82, 94.3%	75.7, 119, 111, 93.7, 83.5, 121, 88.9, 104, 82.6, 81.1, 92.5, 90.3, 110%	96, 97, 101, 76.7, 106, 91.8, 82.8, 84.4, 80.9, 68, 108, 90.3, 76.3%	104, 91.8, 89.8, 95.3, 78.7, 96.5, 102, 92.8, 77.5, 86.3, 108, 82.8, 116%	101, 93.4, 103, 98.5, 79, 77.4, 102, 62.5, 77.9, 87.3, 96, 92.4, 74%	–
COC1C(OC(N)=O)C(O)C(Oc2ccc3c(O)c(NC(=O)c4ccc(O)c(CC=C(C)C)c4)c(=O)oc3c2C)OC1(C)C (stereo unspecified)	130, 92.3, 95.4, 90, 110, 104 (2×), 105, 101, 108, 98.9, 106, 90.1%	85.6, 127, 99.4, 120, 101, 98.8, 82.9, 95, 91.9, 103, 98.9, 79.3, 95.3%	85.8, 118, 88.5, 103, 74, 97.1, 106, 81.7, 75.3, 101, 83.6, 115, 68.8%	83.2, 108, 81.8, 116, 93.2, 89.6, 130, 117, 99.5, 86.5, 100, 80.9, 110%	103 (2×), 90, 100, 86.4, 86.7, 98.5, 96.1, 91.2, 92.2, 85.2, 85, 116%	113, 102 (2×), 107, 79.8, 96.2, 82.7, 105, 99.8, 81.7, 94.3, 120, 89.5%
Cc1cccc(N(C)C(=O)C2C(O)CCN2c2nc(C)cc(C(F)(F)F)c2C#N)c1 (stereo unspecified)	84.8, 92.3, 96.9, 110, 98.9, 89, 86, 85.2% [2023-10] and 102, 94.4, 84.1, 107, 113% [2023-11]	–	86.3, 86.7, 96.9, 114, 113, 89.2, 96.8, 98.9% [2023-10] and 105, 97.4, 84.1, 81.4, 99.2% [2023-11]	83.4, 93.9, 104, 79.3, 109, 98.7 (2×), 102% [2023-10] and 72.7, 89, 92.9, 80.9, 94% [2023-11]	96.8, 85.2 (2×), 105, 110, 106, 82.8, 81% [2023-10] and 92.7, 79.8, 87.5, 95.8, 75.7% [2023-11]	91.5, 67, 95.6, 84.3, 109, 122, 91.3, 79.1% [2023-10] and 90, 85.3, 89.1, 115, 98.8% [2023-11]

— PubChem BioAssay AID1963827 (Molecular Pharmacology Branch, DTP, NCI, 2024)
